Laboratory results taken from patent US9474790B2, “Stable, protracted GLP-1/glucagon receptor co-agonists for medical use” (Novo Nordisk A/S, priority 2013, dated 2016).
For at least one compound, name, drawing or mass did not settle the structure. Numbered stars: 1 amine (or outer) side, 2 acyl side, 3 side chain; on linkers, the order of the positions; unused ones are H or OH. Square brackets hold non-standard residues; d marks the D form. Side chains are listed from the residue outwards. Peptide text beside a SMILES is read from it. * marks the point of attachment. C18 diacid = O=C(O)CCCCCCCCCCCCCCCCC(=O)*; γGlu = O=C(O)[C@H](CCC(=O)[*:2])N[*:1]; AEEA = NCCOCCOCC(=O)O; Aib = CC(C)(N)C(=O)O

Assays:
human GLP-1 receptor = molecular target: T1, human GLP-1 receptor (Homo sapiens, UniProt P43220); test: GLP-1 receptor binding, 125I-GLP-1 displacement SPA on isolated membranes; conditions: displacement of 125I-GLP-1 from membranes; read-out: IC50 GLP-1R
T1 construct: expressed in transfected cells; host or cells: BHK cells (parent BHKTS13), clone FCW467-12A/KZ10-1, with CRE luciferase
Experimental: The purpose of this assay was to test the in vitro receptor binding activity of the glucagon derivatives of the invention. The receptor binding is a measure of affinity of a compound for the human GLP-1 receptor.
The receptor binding of each compound to the human GLP-1 receptor was measured in a displacement binding assay. In this type of assay a labelled ligand (in this case 125I-GLP-1) is bound to the receptor. Each derivative was added in a series of concentrations to isolated membranes containing the human GLP-1 receptor and displacement of the labelled ligand was monitored. The receptor binding was reported as the concentration at which half of the labelled ligand was displaced from the receptor, the IC50 value.
In order to test the binding of the derivatives to albumin, the assay may be performed in a very low concentration of serum albumin (max. 0.001% final assay concentration) as well as in the presence of a higher concentration of serum albumin (2.0% final assay concentration). […]
The cells were grown at 5% CO2 in DMEM, 10% fetal calf serum, 1% Pen/Strep (Penicillin/Streptomycin) and 1.0 mg/ml of the selection marker G418. […] The resulting pellet was re-suspended in buffer 2 and the protein concentration was determined. […]
8. The assay plate was read in a Perkin Elmer TopCount NXT instrument. […]

DIO mice = test: In vivo test in diet-induced obese (DIO) mice: body weight and blood glucose; design: species or system c57bl/6J mice
Text: The purpose of this experiment was to investigate effect of the glucagon-GLP-1R co-agonists from Example 8 and Example 12 on body weight and blood glucose in vivo in DIO mice. Liraglutide (a human GLP-1 analogue marketed by Novo Nordisk NS under the brand name VictozaTM) was included for comparison. Male […]/6J mice obtained from Jackson Lab (USA) were fed a high fat diet (Research Diets D12451, 45% kcal fat) to obtain approximately 50% overweight compared to age-matched lean control mice. The DIO mice are characterized by normoglycemia, insulin resistance and obesity. […] The co-agonists, i.e. the glucagon derivatives, were dissolved in 50 mM Na2HPO4, 145 mM NaCl og 0.05% Tween 80, pH 7.4, while liraglutide was diluted from 6 mg/ml VictozaTM pens in DPBS buffer (Invitrogen) containing 0.5% rat serum albumin. Vehicle treated animals received 50 mM Na2HPO4, 145 mM NaCl og 0.05% Tween 80, pH 7.4. Compounds and vehicle were dosed (1 ml/kg) for 5 weeks s.c. once daily just prior to lights out. For the first half of the study co-agonists were administered at a dose of 5 nmol/kg and for the second half of the study co-agonists were administered at a dose of 10 nmol/kg. For comparison, liraglutide at a dose of 100 nmol/kg, likewise dosed s.c. once daily, was included. Body weight was monitored before dosing, daily during the dosing period. Non-fasted blood glucose was measured on the day of initiation of dosing and weekly during the dosing period, prior to dosing. Blood for measurement of blood glucose was taken from the tail tip capillary and blood glucose was measured using a glucose analyzer (Biosen 5040) based on the glucose oxidase method. The body weight reduction/body weight at the end of the 5 week treatment period and area under the blood glucose curve during the five week treatment period are given in the tables below.

T1 sequence (P43220 24-463): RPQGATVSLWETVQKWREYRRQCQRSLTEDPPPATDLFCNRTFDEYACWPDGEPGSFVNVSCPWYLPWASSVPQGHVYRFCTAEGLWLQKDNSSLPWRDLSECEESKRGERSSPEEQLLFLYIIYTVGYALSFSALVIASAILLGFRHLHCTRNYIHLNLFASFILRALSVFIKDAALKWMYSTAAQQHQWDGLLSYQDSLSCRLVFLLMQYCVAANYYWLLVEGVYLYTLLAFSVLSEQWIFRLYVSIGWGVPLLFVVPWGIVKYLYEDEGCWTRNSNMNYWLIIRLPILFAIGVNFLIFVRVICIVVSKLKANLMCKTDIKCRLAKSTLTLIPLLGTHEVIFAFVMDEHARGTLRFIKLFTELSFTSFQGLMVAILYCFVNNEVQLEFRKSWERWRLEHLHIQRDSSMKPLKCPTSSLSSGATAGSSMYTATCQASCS

| SMILES | IC50 (human GLP-1 receptor) | Body weight (DIO mice; after 5 weeks of treatment, s.c. once daily, co-agonists 5 then 10 nmol/kg, liraglutide 100 nmol/kg) | AUC BG(week 1-5) (mean ± SD) (DIO mice; non-fasted blood glucose over the 5-week treatment period) | Percent BW of baseline at week 5 (mean ± SD) (DIO mice; s.c. once daily 5 weeks, co-agonists 5 then 10 nmol/kg, liraglutide 100 nmol/kg) |
| --- | --- | --- | --- | --- |
| CC(C)C[C@H](NC(=O)[C@H](Cc1ccc(O)cc1)NC(=O)[C@H](CCCCN)NC(=O)[C@H](CO)NC(=O)[C@H](CC(C)C)NC(=O)[C@H](CC(=O)O)NC(=O)[C@H](CO)NC(=O)[C@@H](NC(=O)[C@H](Cc1ccccc1)NC(=O)[C@@H](NC(=O)CNC(=O)[C@H](CCC(N)=O)NC(=O)C(C)(C)NC(=O)[C@@H](N)Cc1c[nH]cn1)[C@@H](C)O)[C@@H](C)O)C(=O)N[C@@H](CCC(=O)O)C(=O)N[C@@H](CO)C(=O)N[C@@H](CCCCN)C(=O)N[C@@H](CCCNC(=N)N)C(=O)N[C@@H](C)C(=O)N[C@@H](CCCNC(=N)N)C(=O)N[C@@H](CCC(=O)O)C(=O)N[C@@H](Cc1ccccc1)C(=O)N[C@H](C(=O)N[C@@H](CCC(N)=O)C(=O)N[C@@H](Cc1c[nH]c2ccccc12)C(=O)N[C@@H](CC(C)C)C(=O)N[C@@H](CC(C)C)C(=O)N[C@@H](CCCCNC(=O)CC[C@H](NC(=O)CC[C@H](NC(=O)COCCOCCNC(=O)COCCOCCNC(=O)CC[C@H](NC(=O)CCCCCCCCCCCCCCCCC(=O)O)C(=O)O)C(=O)O)C(=O)O)C(=O)N[C@H](C(N)=O)[C@@H](C)O)C(C)C [Example 22, N^ε29-[(4S)-4-carboxy-4-[[(4S)-4-carboxy-4-[[2-[2-[2-[[2-[2-[2-[[(4S)-4-carboxy-4-(17-carboxyheptadecanoylamino)butanoyl]amino]ethoxy]ethoxy]acetyl]amino]ethoxy]ethoxy]acetyl]amino]butanoyl]amino]butanoyl]-[Aib2,Leu10,Glu15,Lys17,Arg20,Glu21,Leu27,Lys28]-Glucagon amide] (H-H[Aib]QGTFTSDLSKYLESKRAREFVQWLLK([γGlu-γGlu-AEEA-AEEA-γGlu-C18 diacid])T-NH2; N-terminus assumed) | 0.2 nM |  |  |  |
| CCCCCCCCCCCCCCCC(=O)N[C@@H](CCC(=O)NCCCC[C@H](NC(=O)[C@H](C)NC(=O)[C@H](C)NC(=O)[C@H](CCC(N)=O)NC(=O)CNC(=O)[C@H](CCC(=O)O)NC(=O)[C@H](CC(C)C)NC(=O)[C@H](Cc1ccc(O)cc1)NC(=O)[C@H](CO)NC(=O)[C@H](CO)NC(=O)[C@@H](NC(=O)[C@H](CC(=O)O)NC(=O)[C@H](CO)NC(=O)[C@@H](NC(=O)[C@H](Cc1ccccc1)NC(=O)[C@@H](NC(=O)CNC(=O)[C@H](CCC(=O)O)NC(=O)[C@H](C)NC(=O)[C@@H](N)Cc1cnc[nH]1)[C@@H](C)O)[C@@H](C)O)C(C)C)C(=O)N[C@@H](CCC(=O)O)C(=O)N[C@@H](Cc1ccccc1)C(=O)N[C@H](C(=O)N[C@@H](C)C(=O)N[C@@H](Cc1c[nH]c2ccccc12)C(=O)N[C@@H](CC(C)C)C(=O)N[C@H](C(=O)N[C@@H](CCCNC(=N)N)C(=O)NCC(=O)N[C@@H](CCCNC(=N)N)C(=O)NCC(=O)O)C(C)C)[C@@H](C)CC)C(=O)O [Liraglutide, reference compound] |  | 36 g ± 5 g* | 208 mM * day ± 10 mM * day*** | 87% ± 4% |
